The whole screen tested about 43,000 compounds, of which about 200 (0.47%) were called active. Another 12% or so got no clear call; they are omitted. Calls come from the whole dose curve; as a rule, active = well fitted cell-killing curve with a large enough effect; inconclusive = small, poorly fitted or top-dose-only effect, or effect the other way; inactive = flat fitted curve, though single readings scatter. Some of the results follow.
% is set by controls: 0 for no effect and ±100 for the full control effect.

The experiment can be described thus: Cell viability qHTS assay in S16 Pmp22-F2sN cells. Note: nearly all actives have a fitted effect of over 65% in size. The conditions noted are these: S16 Pmp22-F2sN Schwann cells (luciferase reporters placed in the Pmp22 gene) viability, CellTiter-Glo, 24 h; series mostly up to 57.5 µM; activity change, negative = cytotoxicity: at the top concentration. In short, it runs like this: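 CellTiter-Glo counter-screen, qHTS, 1536-well. Cells: S16(c9) Pmp22-F2sN, 500-1,000/well in DMEM + 10% FBS. Cpd 23 nL pin transfer, 24 h, 37C/5% CO2. Read: luminescence, CCD imager.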
Take `COC(=O)C(Cc1c[nH]c2ccccc12)NC(=O)COc1cccc(C)c1` (stereo not drawn): the “activity change, negative = cytotoxicity” value was inactive: 2.54%. Consider `O=C(COc1ccccc1F)Nc1ccc2oc(-c3cccc(Cl)c3)nc2c1`, for which the “activity change, negative = cytotoxicity” value was inactive: 5.88%. `Cc1cccc(CN2C(=O)N(c3ccc(C(C)C)cc3)S(=O)(=O)c3ccccc32)c1`: the “activity change, negative = cytotoxicity” value is inactive: 5.22%.

With `Cc1ccc(-c2ccc(=O)n(CC(=O)Nc3ccc(C)cc3Cl)n2)cc1`, the “activity change, negative = cytotoxicity” value is inactive: -13.1%. `COc1ccccc1-c1nc(SCC(=O)NCc2ccc(C)cc2)c2c(=O)n(C)c(=O)n(C)c2n1`: the “activity change, negative = cytotoxicity” value is inactive: -5.67%.

In the case of `Clc1cccc(N2CCN(c3nc4ccccc4n4nnnc34)CC2)c1`, the “activity change, negative = cytotoxicity” value is inactive: -7.62%. As to `COc1ccc(C(=O)Nc2ccc3oc(-c4cccnc4)nc3c2)cc1`, the “activity change, negative = cytotoxicity” value was inactive: 0.269%. Turning to `COc1ccc(C2C=C(c3ccccc3)Nc3nc(NC(=O)c4cccc([N+](=O)[O-])c4)nn32)cc1` (stereo not drawn), the “activity change, negative = cytotoxicity” value is inactive: -5.3%. The value for `COc1cccc(/C=C/c2nc(C#N)c(NCCc3ccccc3)o2)c1` was inactive: -1.34%. Consider `COc1cccc(CNS(=O)(=O)c2ccc3c(c2)CCN3C(=O)C2CCC2)c1`, for which the “activity change, negative = cytotoxicity” value is inactive: 17.5%. The value for `O=C(Nc1ccc(F)cc1)N1CCN(c2ccccc2F)CC1` was inactive: 0.355%. As for `Cc1nn2c(=O)cc(COC(=O)c3ccco3)nc2s1`, the “activity change, negative = cytotoxicity” value is inactive: 28.7%.

As for `O=C(NCc1cccs1)c1ccc(Cn2c(SCc3ccccc3)nc3cccnc32)cc1`, the “activity change, negative = cytotoxicity” value was inactive: 5.53%. Take `O=C(Nc1c(C(=O)N2CCN(c3ccccc3)CC2)oc2ccccc12)c1ccc(Br)o1`: the “activity change, negative = cytotoxicity” value was inactive: -2.78%. Regarding `Cc1cc(Cl)ccc1OCC(=O)Nc1c(Cl)ccc2nsnc12`, the “activity change, negative = cytotoxicity” value was inactive: -14.1%. In the case of `Cc1cc(=O)[nH]c2nnc(SCc3ccc(F)cc3)n12`, the “activity change, negative = cytotoxicity” value is inactive: -6.16%. `COc1ccc(N2C(=O)CS(=O)(=O)C23C(=O)N(Cc2cccc(F)c2)c2ccccc23)cc1OC` (stereo not drawn): the “activity change, negative = cytotoxicity” value was inactive: 1.84%. For the compound `O=C(CC(c1cccs1)N1Cc2ccccc2C1=O)Nc1ccc(F)c(F)c1` (stereo not drawn), the “activity change, negative = cytotoxicity” value is inactive: -1.16%. Consider `Cc1ccc(C)c(S(=O)(=O)c2nnn3c2nc(Nc2ccc(C)c(C)c2)c2sccc23)c1`, for which the “activity change, negative = cytotoxicity” value was inactive: 23.8%. Consider `COc1ccc(Cn2c(SCC(=O)NCc3ccc(Cl)cc3)nc3ccsc3c2=O)cc1`, for which the “activity change, negative = cytotoxicity” value was inactive: 8.96%. As to `CCOC(=O)c1ccc(-n2c(CCC(=O)O)ccc2-c2ccc(Br)cc2)cc1`, the “activity change, negative = cytotoxicity” value was inactive: 9.78%. Turning to `COc1ccc2nc3oc(C(=O)N4CCN(c5cc(C)ccc5C)CC4)cc3cc2c1`, the “activity change, negative = cytotoxicity” value is inactive: -16.7%. With `CCC(=O)N1CCc2cc(S(=O)(=O)CCC(=O)Nc3ccc(OC(F)(F)F)cc3)ccc21`, the “activity change, negative = cytotoxicity” value is inactive: -16%. `COc1ccccc1N1CCN(C(=O)C(CCSC)NS(=O)(=O)c2ccc3c(c2)oc(=O)n3C)CC1` (stereo not drawn): the “activity change, negative = cytotoxicity” value was inactive: 2.17%. For the compound `CC(C)Oc1ccc(CNC(=O)CCCN2C(=O)CCn3nc(-c4cccn4C)cc32)cc1`, the “activity change, negative = cytotoxicity” value is inactive: -15.9%. `CCc1ccc(NCc2cc3ccc(OC)cc3n(CC(=O)Nc3ccc(F)cc3F)c2=O)cc1`: the “activity change, negative = cytotoxicity” value was inactive: 27.3%.

With `CCC(=O)N1c2ccccc2CC1C(=O)N1CCN(c2cccc(Cl)c2)CC1` (stereo not drawn), the “activity change, negative = cytotoxicity” value is inactive: 7.87%. For `O=C(c1ccco1)n1nc(-c2ccccc2)nc1NCc1ccc(Cl)cc1`, the “activity change, negative = cytotoxicity” value is inactive: -3.72%.

For `Cc1nn(-c2ccccc2)c2c1N(CCCC(=O)NCc1ccc(N(C)C)cc1)C(=O)CS2`, the “activity change, negative = cytotoxicity” value is inactive: 9.08%. As to `Cc1ccc(-c2nc(-c3cc4c([nH]c3=O)CC(C)(C)CC4=O)sc2C)cc1`, the “activity change, negative = cytotoxicity” value is inactive: 17.6%.

`CCCCSc1nc(-c2ccc(OC)cc2)ccc1C#N`: the “activity change, negative = cytotoxicity” value was inactive: -1.16%. `COC(=O)c1ccccc1NC(=O)Cn1c(CCC(=O)O)ccc1-c1cccs1`: the “activity change, negative = cytotoxicity” value is inactive: -2.58%. Turning to `Cc1cccc(-c2nc(C)c(CCNC(=O)C(=O)Nc3cccc(Cl)c3C)s2)c1`, the “activity change, negative = cytotoxicity” value is inactive: 9.98%. For `O=C(Cn1cc(SCc2ccc(C(F)(F)F)cc2)c2ccccc21)N1CCOCC1`, the “activity change, negative = cytotoxicity” value was inactive: -4.73%.

`COC(=O)CSc1ncc2c(n1)-c1ccccc1N(Cc1ccccc1C)S2(=O)=O`: the “activity change, negative = cytotoxicity” value was inactive: 2.05%. The value for `CC(=O)c1ccc(NC(=O)CN2C(=O)CCc3ccccc32)cc1` was inactive: -11.3%. Consider `Cc1ccc(Cn2cc(CCC(=O)NC3CCC(C)CC3)c3ccccc32)cc1` (stereo not drawn), for which the “activity change, negative = cytotoxicity” value is inactive: 11.6%. Consider `CC1CCC(Nc2nc3c(-c4ccc(Cl)cc4)nnn3c3ccccc23)CC1` (stereo not drawn), for which the “activity change, negative = cytotoxicity” value was inactive: 2.06%. With `Cc1ccc2occ(CC(=O)N(Cc3ccccc3Cl)C3CCS(=O)(=O)C3)c2c1` (stereo not drawn), the “activity change, negative = cytotoxicity” value is inactive: 2.33%. As for `CCOC(=O)c1cccc(NC(=O)NCc2cccn2Cc2ccccc2)c1`, the “activity change, negative = cytotoxicity” value is inactive: -24.3%. `Cn1c(=O)oc2cc(S(=O)(=O)N3CCCC(C(=O)NCCc4ccc(Cl)cc4)C3)ccc21` (stereo not drawn): the “activity change, negative = cytotoxicity” value was inactive: 4.24%. As to `COc1ccccc1CNS(=O)(=O)c1ccc2c(c1)NC(=O)C(C)C(=O)N2` (stereo not drawn), the “activity change, negative = cytotoxicity” value is inactive: 0.38%.

In the case of `CC(=O)Nc1ccc(/C=C/c2nc(-c3ccccc3O)n(-c3ccccc3)n2)cc1`, the “activity change, negative = cytotoxicity” value is inactive: 16.9%. Take `CCC(=O)N1CCc2cc(Br)cc(S(=O)(=O)N3CCN(c4ccc(C)cc4)C(C)C3)c21` (stereo not drawn): the “activity change, negative = cytotoxicity” value was inactive: 13.2%. Consider `CCOC(=O)c1c(C)[nH]c(C)c1S(=O)(=O)N1CCC(C(=O)N2CCN(c3ccccc3)CC2)CC1`, for which the “activity change, negative = cytotoxicity” value was inactive: 5.1%.

Take `O=C(NCc1ccccc1Cl)C1CCCN(S(=O)(=O)c2cccc3nsnc23)C1` (stereo not drawn): the “activity change, negative = cytotoxicity” value is inactive: -11.5%. The value for `COc1ccc(OC)c(CNC(=O)c2c3c(nc4ccccc24)C(=O)N(C2CCCCC2)C3)c1` was inactive: -1.53%. As for `CCOC(=O)c1c(C)[nH]c(C)c1S(=O)(=O)N1CCC(C(=O)N2CCN(c3cccc(Cl)c3)CC2)CC1`, the “activity change, negative = cytotoxicity” value is inactive: -5%.

Source of the values: PubChem BioAssay AID1508642 (National Center for Advancing Translational Sciences (NCATS), 2021).
